Measured values published in the supplement of paper PMC4604168 (melanoma cell lines).
The other results are listed elsewhere or left out. Many values rest on one well or one pass, so single values are uncertain.

What was measured:
Experiment in all cases: cell count relative to DMSO control; melanoma cells; higher = more viable cells
Conditions in all cases: library dose: low library concentration; 72 h; first compound 0.4 µM
WM115 = test system: WM115
WM1716 = test system: WM1716
WM1745 = test system: WM1745
WM3526 = test system: WM3526
WM3619 = test system: WM3619
WM451Lu = test system: WM451Lu
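Note: cell number obtained by counting DAPI-stained nuclei in high-throughput microscope images with image analysis software, screen run in 1,536-well plates.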

Compound	cell count (WM115) [%]	cell count (WM1716) [%]	cell count (WM1745) [%]	cell count (WM3526) [%]	cell count (WM3619) [%]	cell count (WM451Lu) [%]
Cn1sc(=O)n(Cc2ccccc2)c1=O + NC1(c2ccc(-c3nc4ccn5c(=O)[nH]nc5c4cc3-c3ccccc3)cc2)CCC1 [MK2206] (partner dose 0.4 µM)	85.7	122	109	85.8	83.4	106
C[C@@H](N)c1ccc(C(=O)Nc2ccnc3[nH]ccc23)cc1 + C=CCn1c(=O)c2cnc(Nc3ccc(N4CCN(C)CC4)cc3)nc2n1-c1cccc(C(C)(C)O)n1 [MK1775] (partner dose 0.02 µM)	92.2	68.2	63.7	114	82.9	111
C[C@@H](N)c1ccc(C(=O)Nc2ccnc3[nH]ccc23)cc1 + CN(C)S(=O)(=O)c1ccc2c(c1)/C(=C/c1cc3c([nH]1)CCCC3)C(=O)N2 [SU6656] (partner dose 0.4 µM)	66.3	79.9	62.1	97.9	71.1	101
